# Measurements as given in PubChem BioAssay AID1347165 (National Center for Advancing Translational Sciences (NCATS), 2019).
# In all, about 220,000 compounds went through this assay and about 5,700 (2.6%) were called active. Inconclusive means that the source gave no clear call. Such entries were picked first, then a sample of the others. Calls come from the whole dose curve; as a rule, active = well fitted inhibition curve with a large enough effect; inconclusive = small, poorly fitted or top-dose-only effect; inactive = no such curve, though single readings can be large or run the other way. Potencies beside an inconclusive call are fits to weak or partial responses and may not hold up.
# Target: Lysine-specific demethylase 5B (Homo sapiens) (UniProt Q9UGL1)
# Experiment: Primary screen for KDM5B Histone Demethylases FDH-coupled qHTS; note: nearly all actives have a fitted effect of over 70% in size; for activity change, negative = inhibition: 0% is about no effect
# Conditions: FDH-coupled NADH fluorescence (FDH is formaldehyde dehydrogenase); activity change, negative = inhibition: at 57.7 µM (top of the series) unless noted
# How it was run: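 Coupled FDH/NAD⁺ fluorescence readout. KDM5BΔAP 200 nM final; compound titration, 10 min RT preincubation; substrate mix 12.5 µM H3K4me3, 25 µM 2-OG, 50 µM Fe(II), 100 µM ascorbate, 0.25 mM NAD⁺, 0.25 U/mL FDH; ΔRFU over 30 min.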
# Potency is the fitted concentration of half-maximal effect; tags give direction and shape of the fitted curve.
# Sequence of UniProt Q9UGL1 (Q9UGL1 whole entry, looked up): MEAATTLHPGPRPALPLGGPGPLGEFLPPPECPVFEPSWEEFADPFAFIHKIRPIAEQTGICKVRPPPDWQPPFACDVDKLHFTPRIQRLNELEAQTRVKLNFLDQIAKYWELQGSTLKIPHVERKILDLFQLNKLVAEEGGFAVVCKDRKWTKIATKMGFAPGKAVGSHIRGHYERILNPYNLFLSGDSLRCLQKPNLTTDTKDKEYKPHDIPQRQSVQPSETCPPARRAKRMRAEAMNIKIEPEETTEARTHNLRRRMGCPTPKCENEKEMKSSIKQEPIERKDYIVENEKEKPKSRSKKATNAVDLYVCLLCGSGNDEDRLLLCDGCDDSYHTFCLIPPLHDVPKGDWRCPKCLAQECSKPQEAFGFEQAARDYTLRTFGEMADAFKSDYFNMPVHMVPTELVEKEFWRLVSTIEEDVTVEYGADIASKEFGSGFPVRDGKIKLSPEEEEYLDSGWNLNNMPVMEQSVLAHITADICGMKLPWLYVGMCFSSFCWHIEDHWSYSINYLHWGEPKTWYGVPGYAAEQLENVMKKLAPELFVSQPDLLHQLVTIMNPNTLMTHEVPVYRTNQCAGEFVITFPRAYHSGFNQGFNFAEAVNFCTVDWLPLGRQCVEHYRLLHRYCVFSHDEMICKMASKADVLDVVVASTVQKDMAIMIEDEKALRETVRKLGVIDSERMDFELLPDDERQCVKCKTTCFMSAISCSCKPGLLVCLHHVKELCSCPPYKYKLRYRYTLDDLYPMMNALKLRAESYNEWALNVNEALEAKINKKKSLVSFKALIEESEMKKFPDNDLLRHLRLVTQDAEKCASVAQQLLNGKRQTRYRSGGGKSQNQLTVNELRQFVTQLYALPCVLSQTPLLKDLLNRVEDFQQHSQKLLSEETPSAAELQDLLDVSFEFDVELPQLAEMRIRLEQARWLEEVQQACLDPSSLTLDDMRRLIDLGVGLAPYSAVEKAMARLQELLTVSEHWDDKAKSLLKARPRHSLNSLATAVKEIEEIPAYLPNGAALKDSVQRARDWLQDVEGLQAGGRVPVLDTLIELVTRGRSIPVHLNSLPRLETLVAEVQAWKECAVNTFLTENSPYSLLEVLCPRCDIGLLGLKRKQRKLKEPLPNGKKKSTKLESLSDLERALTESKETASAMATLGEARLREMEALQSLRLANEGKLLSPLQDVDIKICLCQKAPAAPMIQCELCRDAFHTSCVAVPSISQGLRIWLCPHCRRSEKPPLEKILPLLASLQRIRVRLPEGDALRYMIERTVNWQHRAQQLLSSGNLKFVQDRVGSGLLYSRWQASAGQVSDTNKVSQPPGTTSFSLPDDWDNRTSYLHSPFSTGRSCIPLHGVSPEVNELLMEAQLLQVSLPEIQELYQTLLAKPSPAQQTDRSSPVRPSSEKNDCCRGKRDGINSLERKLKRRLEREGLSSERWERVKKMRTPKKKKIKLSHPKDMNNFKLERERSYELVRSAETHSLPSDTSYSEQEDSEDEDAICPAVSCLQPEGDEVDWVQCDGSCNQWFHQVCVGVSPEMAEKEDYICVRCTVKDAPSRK
SMILES,Potency,"activity change, negative = inhibition"
O=S1(=O)c2c(cccc2N2CCSCC2)Oc2ccccc2CN1Cc1cn(Cc2cccc(C(F)(F)F)c2)nn1,"inconclusive: 31.6 µM [inhibitor, partial curve, poor fit]",
O=C(NC1(c2ccccc2)CCC1)c1cc2ccccc2oc1=O,,inactive: 13.3%
CCC(=O)N1CCC(CC)(N2CCNCC2)C1 (stereo not drawn),"inconclusive: 25.1 µM [inhibitor, partial curve]",
CCN(CC)CCCNC(=O)CSc1nc(-c2ccc(OC)cc2)cc(C(F)(F)F)n1,"inconclusive: 31.6 µM [inhibitor, partial curve, poor fit]",
COc1ccc(-c2c(C(F)(F)F)oc3cc(OC(C)=O)ccc3c2=O)cc1OC,,inactive: 2.73%
Oc1c(C(c2ccccc2Cl)N2CCN(Cc3ccccc3)CC2)sc2nc(-c3ccco3)nn12 (stereo not drawn),"inconclusive: 2.51 µM [inhibitor, partial curve, poor fit]",
CS(=O)(=O)N1CCC(OC2CCN(C(=O)NC3CCCC3)CC2)CC1,,inactive: -13.8%
COc1ccc(-c2cc(Nc3ccccc3)nc(C)n2)cc1,"inconclusive: 22.4 µM [inhibitor, single point]",
O=C(COc1cc(Cl)cc(Cl)c1)NC1CC1,,inactive: 18.8%
Cc1ccc(NC(=O)Cn2cc3c(n2)CCCC3)c(C)c1,"inconclusive: 39.8 µM [inhibitor, single point]",
CCCC(NC(=O)Cc1n[nH]c(=O)c2ccccc12)c1ccccc1 (stereo not drawn),,inactive: 11.5%
Cc1[nH]c(C=O)c(C)c1C,,inactive: 10.2%
COc1ccc(-c2cnc3n[nH]c(-c4ccc(F)cc4C)c3n2)cc1,"inconclusive: 28.2 µM [inhibitor, partial curve, poor fit]",
Cc1ccc(C)c(COC(=O)c2cc(S(=O)(=O)N3CCCCC3)ccc2N2CCOCC2)c1,,inactive: 16%
CCN1c2cc(C(=O)Nc3ccc(OC)c(OC)c3)ccc2C(=O)N2CCCCCC21 (stereo not drawn),"inconclusive: 20 µM [inhibitor, partial curve, poor fit]",
Nc1nnc(N)c2c1no[n+]2[O-],"inconclusive: 28.2 µM [inhibitor, single point]",
Cc1ccc(-c2csc(NC(=O)c3cnc4c(cnn4C(C)C)c3)n2)cc1C,"inconclusive: 39.8 µM [inhibitor, single point]",
CC1CCN(S(=O)(=O)c2ccc(C(=O)Nc3nc(-c4ccccc4)cs3)cc2)CC1,"inconclusive: 22.4 µM [inhibitor, partial curve, poor fit]",
O=C1C(N2CCN(S(=O)(=O)c3cccc(F)c3)CC2)CCN1Cc1cccnc1 (stereo not drawn),,inactive: -24.8%
COc1cc(CC(=O)Nc2cc(S(=O)(=O)N3CCCCC3)ccc2C)cc(OC)c1OC,,inactive: -18.4%
COCCn1cc(C(=O)NCCc2ccccc2OC)ccc1=O,,inactive: -7.66%
O=Cc1ccccc1-c1ccccc1C(=O)O,,inactive: -0.292%
O=C1c2ccccc2NC(c2cnc3ccccc3n2)N1c1ccc(Cl)cc1 (stereo not drawn),,inactive: 3.11%
O=C(Cn1c(=O)c2ccccc2n2nncc12)Nc1cccc(F)c1,"inconclusive: 2.51 µM [inhibitor, partial curve, poor fit]",
O=C(c1ccc2cc[nH]c2c1)N1CCC(c2noc(C3CC3)n2)C1 (stereo not drawn),"inconclusive: 31.6 µM [inhibitor, partial curve, poor fit]",

SMILES,Potency,"activity change, negative = inhibition"
CCCCSc1oc(-c2ccco2)nc1S(=O)(=O)c1ccc(F)cc1,,inactive: -21.6%
Cc1ccc(NC(=O)c2cccs2)cc1NC(=O)c1ccccc1Cl,"inconclusive: 39.8 µM [inhibitor, single point]",
COCCn1ccc2c(C3=CCOCC3)nc(-c3cccc(C(N)=O)c3)cc21,active: 31.6 µM,
Cc1cc(C[C@@H]2COC[C@@H]2NC(=O)c2ccccc2-c2ccc(F)cc2)on1,,inactive: 4.36%
COc1ccc(Cc2nnc(NC(=O)c3cccc(NC(=O)c4ccccc4)c3)s2)cc1,,inactive: 5.51%
CCN(C)C(=O)CCc1c(C)nn(-c2ccccc2)c1Oc1ccccc1F,active: 14.1 µM,
O=C(Nc1cccc(C(F)(F)F)c1)Nc1cccs1,,inconclusive: -40% [inhibitor]
CCOc1ccc(CNC(=O)CCn2c(=O)c3cccn3c3ccc(F)cc32)cc1,"inconclusive: 15.8 µM [inhibitor, partial curve, poor fit]",
Cc1ccc2c(c1)-c1c(cnn1CC(=O)N(C)c1ccccc1Cl)CO2,,inactive: -4.49%
Cc1ccc(NC(=O)c2cc(Cl)ccc2F)cc1,,inactive: 9.57%
CCOC(=O)c1ccc(NC(=O)c2ccc(CN3C(=O)CCn4nc(C)cc43)cc2)cc1,"inconclusive: 15.8 µM [inhibitor, partial curve, poor fit]",
CN1CCN(C(=O)C2CCCN(C3CCN(c4cc(C#N)ccn4)CC3)C2)CC1 (stereo not drawn),active: 28.2 µM,
CCN1CCCC1CNC(=O)c1nc(-c2ccc3cc[nH]c3c2)no1 (stereo not drawn),,inactive: -4.32%
CC(C)(C)c1nnc([C@H]2CCN(Cc3ccco3)C2)o1,"inconclusive: 31.6 µM [inhibitor, partial curve, poor fit]",
COc1cccc(NC(=O)Nc2ccc3nc(N4CCN(C)CC4)cc(C)c3c2)c1,"inconclusive: 31.6 µM [inhibitor, partial curve, poor fit]",
Cc1cnc2c(S(=O)(=O)N(CC(N)=O)C3CCCC3)cccc2c1,,inactive: -20%
COc1ccc(CN2Cc3cc(NC(=O)c4ccc(F)cc4F)ccc3OC(C)C2=O)c(OC)c1 (stereo not drawn),,inactive: -11.9%
Cc1cccc(NC(=O)CN2C(=O)CCn3nc(-c4cccn4C)cc32)c1C,"inconclusive: 44.7 µM [inhibitor, single point]",
Cc1cc(S(=O)(=O)NCc2ccccc2Cn2cccn2)ccc1Br,,inactive: 3.27%
CC(C)c1noc(-c2cccn3c(CNC(=O)C4CCC4)nnc23)n1,"inconclusive: 15.8 µM [inhibitor, partial curve, poor fit]",
Cc1ccc2c(CNC3CCCC3)c(C(=O)O)n(Cc3ccc(F)cc3)c2c1,"inconclusive: 31.6 µM [inhibitor, partial curve, poor fit]",
Cc1noc2c(-c3cccc(CO)c3)cc(-c3ccc(F)cc3)nc12,"inconclusive: 39.8 µM [inhibitor, partial curve, poor fit]",
Cc1csc(Nc2ccc3ncn(C)c(=O)c3n2)n1,"inconclusive: 35.5 µM [inhibitor, partial curve, poor fit]",
COc1ccc(Cc2nc3nccc(-c4cc5ccccc5o4)n3n2)cc1,"inconclusive: 8.91 µM [inhibitor, partial curve, poor fit]",
CCc1noc(-c2cccn3c(CNC(=O)COc4ccc(F)cc4)nnc23)n1,active: 22.4 µM,

SMILES,Potency,"activity change, negative = inhibition"
COc1ccc(Cl)cc1NC(=O)C(CC(C)C)N1Cc2ccccc2C1=O (stereo not drawn),,inactive: -5.55%
Cc1cc(C)c(NC(=O)CSc2ncc(CO)n2CC(=O)NC2CC2)c(C)c1,,inactive: 7.68%
Cc1noc(-c2ccn3c(CNC(=O)C(C)c4ccccc4)nnc3c2)n1 (stereo not drawn),active: 28.2 µM,
Cc1ccc(Cl)cc1NC(=O)c1ccc(NC(=O)N2CCSc3ncccc32)cc1,"inconclusive: 31.6 µM [inhibitor, partial curve, poor fit]",
Cc1ccc([N+](=O)[O-])cc1NC(=O)CN(C)CCOc1ccccc1,"inconclusive: 14.1 µM [inhibitor, partial curve, poor fit]",
COc1ccccc1NC(=O)Cn1c(C)ccc(NC(=O)Nc2ccc(C)cc2)c1=O,active: 17.8 µM,
Cc1cc2nc(NC3=NCN(CCO)CN3)nc(C)c2cc1C,"inconclusive: 25.1 µM [inhibitor, single point]",
CCNCCC(CCC(C)C)c1ccc2c(c1)OCO2 (stereo not drawn),"inconclusive: 31.6 µM [inhibitor, single point]",
O=C(Nc1ccccn1)c1cc(-c2ccc(Cl)s2)nc2ccccc12,"inconclusive: 28.2 µM [inhibitor, partial curve, poor fit]",
CN1C[C@@H](NC(=O)C2CC2)C[C@H]1c1nc(-c2ccc3ccccc3c2)no1,"inconclusive: 31.6 µM [inhibitor, single point]",
O=C(CC1SC(=O)N(c2ccccc2)C1=O)Nc1ccc(Br)cc1 (stereo not drawn),"inconclusive: 20 µM [inhibitor, single point]",
CC(C)CNC(=O)CN1CCN(c2cccc(Cl)c2)CC1,"inconclusive: 14.1 µM [inhibitor, partial curve, poor fit]",
CCOC(=O)C(O)(c1c(C)[nH]c2ccccc12)C(F)(F)F (stereo not drawn),,inactive: -16.6%
CN(C)c1ccc(NC(=S)N[C@H]2CO[C@H]3[C@@H]2OC[C@H]3OC(=O)Nc2cccc3ccccc23)cc1,,inactive: -13.9%
COc1cc(NS(=O)(=O)c2ccc3c(c2)CC(=O)N3)cc(OC)c1OC,"inconclusive: 25.1 µM [inhibitor, partial curve, poor fit]",
Oc1ccc2cccc(O)c2c1,"inconclusive: 28.2 µM [inhibitor, partial curve, poor fit]",
O=C(CSCc1ccccc1Br)Nc1cccc(F)c1,,inactive: 1.02%
O=C(c1cc(F)ccc1F)N1CCCC(Cc2nc(C3CCOCC3)no2)C1 (stereo not drawn),"inconclusive: 28.2 µM [inhibitor, single point]",
COCCN1C(=O)CO[C@H]2CN(c3ncccn3)C[C@H]21,active: 35.5 µM,
CCc1ccc(CCC(=O)NCC2CCCO2)cc1 (stereo not drawn),,inactive: 23.3%
CCCCN(Cc1cc2ccccc2[nH]c1=O)C(=O)c1cc(OC)c(OC)c(OC)c1,,inactive: 5.03%
COc1ccc(CCNC(=O)c2ccc3c(c2)sc2nc(-c4ccc(C)cc4)cn23)cc1OC,"inconclusive: 2.24 µM [inhibitor, full curve, poor fit]",
Cc1ccc(/C=N/n2c(-c3ccncc3)n[nH]c2=S)s1,"inconclusive: 10 µM [inhibitor, partial curve, poor fit]",
